Where a name gives a salt, the structure may show the parent alone. ± gives the standard deviation of the averaged measurements. The list shows a part of the results. Single values are uncertain, as repeats are few or missing.
How the values were obtained:
Assay in all cases: log2 surviving fraction relative to plate median (drug vs vehicle, or drug+dl922-947 vs dl922-947 alone); ovarian cancer lines: OVCAR4 is platinum-sensitive while Ov4Cis resists cisplatin and Ov4Carbo carboplatin; higher = more cell survival
Conditions in all cases: compound concentration: 10 uM, 192 h
OVCAR4 = tested on: OVCAR4
Ov4Carbo = tested on: Ov4Carbo
Ov4Cis = tested on: Ov4Cis
[1] = dl922-947 oncolytic adenovirus co-treatment: MOI 10
[2] = dl922-947 oncolytic adenovirus co-treatment: none

Row | SMILES | log2 surviving fraction (OVCAR4; [1]) | log2 surviving fraction (OVCAR4; [2]) | log2 surviving fraction (Ov4Carbo; [1]) | log2 surviving fraction (Ov4Carbo; [2]) | log2 surviving fraction (Ov4Cis; [1]) | log2 surviving fraction (Ov4Cis; [2])
1 | CCC1(C)CC(=O)NC(=O)C1 [Bemegride] | -0.16 ± 0.73 | 0.203 ± 1 | -0.0224 | -0.538 | -0.241 | -1.1
2 | CO[C@H]1/C=C/O[C@@]2(C)Oc3c(C)c(O)c4c(O)c(c(/C=N/N5CCN(C)CC5)c(O)c4c3C2=O)NC(=O)/C(C)=C\C=C\[C@H](C)[C@H](O)[C@@H](C)[C@@H](O)[C@@H](C)[C@H](OC(C)=O)[C@@H]1C [Rifampin (Rifadin, Rimactane)] | 0.666 ± 0.32 | -1.2 ± 0.63 | -1.01 | 1.37 | -0.0738 | 0.415
3 | Nc1ncnc2c1ncn2[C@@H]1O[C@H](CO)[C@@H](O)[C@H]1O [Adenosine (Adenocard)] | 0.639 ± 1.3 | 1.44 ± 1.2 | 1.83 | 1.2 | 0.673 | 1.62
4 | Nc1cccc2c1CN(C1CCC(=O)NC1=O)C2=O (stereo not given) [Lenalidomide] | 0.697 ± 0.52 | 2.95 ± 2.8 | 0.519 | 2.72 | 1.41 | 1.22
5 | CN(C)CCOC(c1ccccc1)c1ccccc1 [Diphenhydramine HCl (Benadryl)] | -0.872 ± 0.28 | 0.08 ± 1 | 0.171 | 0.398 | -0.996 | 0.171
6 | CCCCCCCCOc1ccccc1C(=O)Nc1ccc(C(=O)OCC[N+](C)(CC)CC)cc1 [Otilonium Bromide] | -0.519 ± 0.28 | -0.0913 ± 0.15 | -2.07 | 1.59 | -0.581 | 0.0999
7 | CN(C)CCC(c1ccc(Cl)cc1)c1ccccn1 (stereo not given) [Chlorpheniramine Maleate] | -0.453 ± 0.62 | 0.211 ± 0.19 | -0.141 | 0.0195 | 0.232 | 0.327
8 | C[C@H](CCC(=O)O)[C@H]1CC[C@H]2[C@@H]3[C@H](O)C[C@@H]4C[C@H](O)CC[C@]4(C)[C@H]3CC[C@]12C [Chenodeoxycholic acid] | 0.136 ± 0.36 | 0.358 ± 0.29 | 0.987 | 0.536 | -0.327 | 0.22
9 | Nc1nc2ccc(OC(F)(F)F)cc2s1 [Riluzole (Rilutek)] | -0.414 ± 0.38 | -0.238 ± 0.81 | -0.258 | -1.66 | -0.504 | -0.655
10 | COc1cc(NS(=O)(=O)c2ccc(N)cc2)nc(OC)n1 [Sulphadimethoxine] | 0.218 ± 0.95 | 0.327 ± 0.093 | 1.05 | -0.0472 | 0.658 | 0.127
11 | COc1cc(C(=O)NS(=O)(=O)c2ccccc2C)ccc1Cc1cn(C)c2ccc(NC(=O)OC3CCCC3)cc12 [Zafirlukast (Accolate)] | 0.369 ± 1.6 | 0.467 ± 0.72 | 1.82 | 0.438 | 0.946 | -0.124
12 | C[N+](C)(C)CCOC(N)=O [Carbachol] | 0.141 ± 1 | -0.408 ± 0.11 | 0.319 | 0.72 | 0.362 | -0.386
13 | CCCCOc1cc(C(=O)OCCN(CC)CC)ccc1N [Oxybuprocaine HCl] | 0.229 ± 0.013 | -0.131 ± 0.38 | 0.11 | 1.18 | -0.0873 | 0.296
14 | CN1CCCC(n2nc(Cc3ccc(Cl)cc3)c3ccccc3c2=O)CC1 (stereo not given) [Azelastine hydrochloride (Astelin)] | -4.63 ± 0.67 | -2.62 ± 1.2 | -4 | -2.17 | -6.84 | -3.5
15 | CCC[C@H](N[C@@H](C)C(=O)N1[C@H](C(=O)O)C[C@@H]2CCCC[C@@H]21)C(=O)OCC [Perindopril Erbumine (Aceon)] | -0.161 ± 0.16 | -0.271 ± 0.14 | 0.147 | -0.274 | -0.0893 | -0.0321
16 | O=P(O)(O)C(O)(Cc1cccnc1)P(=O)(O)O [Risedronic acid (Actonel)] | 0.099 ± 0.059 | -0.758 ± 2.4 | 0.157 | -1.71 | 0.323 | 0.301
17 | Cc1[nH]c(=O)c(C#N)cc1-c1ccncc1 [Milrinone (Primacor)] | 1.05 ± 0.2 | -0.0981 ± 0.28 | 0.202 | -0.429 | 0.646 | 0.168
18 | O=C(O)C[C@H](O)C[C@H](O)/C=C/c1c(C2CC2)nc2ccccc2c1-c1ccc(F)cc1 [Pitavastatin calcium (Livalo)] | -3.11 ± 0.31 | -5.79 ± 2.3 | -3.49 | -8.57 | -2.21 | -6.97
19 | CN(C)C(=O)Oc1ccc[n+](C)c1 [Pyridostigmine Bromide (Mestinon)] | -0.206 ± 0.32 | 0.133 ± 0.67 | 0.0516 | 1.13 | -0.0375 | -0.465
20 | Cc1c(N(C)C)c(=O)n(-c2ccccc2)n1C [Amidopyrine] | 0.0441 ± 0.1 | 0.266 ± 0.38 | -0.925 | -1.02 | 0.272 | -0.12
21 | Cc1ccc(NC(=O)c2ccc(CN3CCN(C)CC3)cc2)cc1Nc1nccc(-c2cccnc2)n1 [Imatinib (Gleevec)] | 0.222 ± 0.32 | -0.409 ± 0.59 | -0.175 | 0.416 | 0.516 | 0.0188
22 | Cc1ccc(O)c([C@H](CCN(C(C)C)C(C)C)c2ccccc2)c1 [Tolterodine tartrate (Detrol LA)] | -0.682 ± 0.19 | -0.638 ± 0.23 | 0.416 | -1.32 | -0.651 | -0.439
23 | C[C@@H](NCCCc1cccc(C(F)(F)F)c1)c1cccc2ccccc12 [AMG-073 HCl (Cinacalcet hydrochloride)] | -1.88 ± 1.1 | -0.765 ± 0.83 | -2.92 | -6.55 | -4.32 | -4.2

Row | SMILES | log2 surviving fraction (OVCAR4; [1]) | log2 surviving fraction (OVCAR4; [2]) | log2 surviving fraction (Ov4Carbo; [1]) | log2 surviving fraction (Ov4Carbo; [2]) | log2 surviving fraction (Ov4Cis; [1]) | log2 surviving fraction (Ov4Cis; [2])
24 | O=C(O)Cc1cc(I)c(Oc2ccc(O)c(I)c2)c(I)c1 [Tiratricol] | -0.204 ± 0.38 | -1.06 ± 0.22 | -0.322 | -1.1 | -0.485 | -1.24
25 | C=C1/C(=C\C=C2/CCC[C@]3(C)[C@@H]([C@H](C)CCCC(C)(C)O)CC[C@@H]23)C[C@@H](O)C[C@@H]1O [Calcitriol (Rocaltrol)] | -0.552 ± 1 | -2.19 ± 0.22 | -1.42 | -3.67 | -1.3 | -1.47
26 | C[C@H]1C[C@H]2[C@@H]3CCC4=CC(=O)C=C[C@]4(C)[C@@]3(F)[C@@H](O)C[C@]2(C)[C@@]1(O)C(=O)CO [Betamethasone (Celestone)] | 1.55 ± 0.44 | -0.293 ± 0.35 | 1.41 | 1.08 | 1.97 | -0.804
27 | CC[C@H]1OC(=O)[C@H](C)[C@@H](O[C@H]2C[C@@](C)(OC)[C@@H](O)[C@H](C)O2)[C@H](C)[C@@H](O[C@@H]2O[C@H](C)C[C@H](N(C)C)[C@H]2O)[C@](C)(O)C[C@@H](C)[C@@H]2N[C@@H](COCCOC)O[C@H]([C@H]2C)[C@]1(C)O [Dirithromycin] | -0.466 ± 0.37 | -0.432 ± 0.49 | -1.2 | -0.45 | 0.39 | -0.516
28 | CC1(C)S[C@@H]2[C@H](NC(=O)Cc3ccccc3)C(=O)N2[C@H]1C(=O)O [Benzylpenicillin sodium] | 0.0208 ± 0.055 | -0.0185 ± 0.65 | 0.246 | -6.93 | -0.987 | -0.365
29 | CNC(=C[N+](=O)[O-])NCCSCc1ccc(CN(C)C)o1 [Ranitidine (Zantac)] | 1.17 ± 0.55 | 0.456 ± 0.95 | 0.562 | 0.506 | 0.358 | 0.428
30 | CCCCCCCCCCOc1cc2c(O)c(C(=O)OCC)cnc2cc1OCC [Decoquinate] | 0.974 ± 0.36 | 0.832 ± 0.68 | 0.536 | 0.849 | 0.378 | 0.909
31 | CN1CCN2c3ccccc3Cc3ccccc3C2C1 (stereo not given) [Mianserin hydrochloride] | -0.294 ± 0.88 | -0.765 ± 0.45 | -1.36 | -1.33 | -1.09 | -1.42
32 | Clc1ccc2nsnc2c1NC1=NCCN1 [Tizanidine HCl] | 2.4 ± 2.4 | 1.49 ± 0.31 | 1.63 | -0.338 | 1.09 | 0.931
33 | Cc1onc(-c2ccccc2Cl)c1C(=O)N[C@@H]1C(=O)N2[C@@H]1SC(C)(C)[C@@H]2C(=O)O [Cloxacillin sodium (Cloxacap)] | 0.969 ± 0.032 | 0.755 ± 0.58 | 1.78 | -0.33 | 0.907 | 0.941
34 | Cc1ccc(NC(=O)c2ccc(CN3CCN(C)CC3)cc2)cc1Nc1nccc(-c2cccnc2)n1 [Imatinib Mesylate] | 0.304 ± 0.51 | -2.3 ± 4 | 0.643 | 2.15 | 0.666 | 1.05
35 | CC(C(=O)O)c1ccc2c(c1)Cc1cccnc1O2 (stereo not given) [Pranoprofen] | -0.557 ± 0.87 | 0.491 ± 0.3 | 0.709 | -0.397 | -0.352 | 0.0834
36 | O=c1n(CCCN2CCN(c3cccc(Cl)c3)CC2)nc2ccccn12 [Trazodone hydrochloride (Desyrel)] | 0.149 ± 0.25 | -0.0575 ± 0.88 | 0.506 | -0.265 | 0.342 | 0.486
37 | CCOCC(O)COc1ccc(NC(=O)CC[S+](C)C)cc1 (stereo not given) [Suplatast tosylate] | -0.182 ± 0.13 | -0.288 ± 0.01 | 0.398 | -0.84 | -0.464 | -0.48
38 | CCCC(CCC)C(=O)O [Valproic acid sodium salt (Sodium valproate)] | 0.942 ± 0.67 | 1.21 ± 0.27 | 1.49 | 2.27 | 1.56 | 1.33
39 | NCCS(=O)(=O)O [Taurine] | -0.137 ± 0.15 | -0.694 ± 0.54 | 2.05 | -0.306 | -0.146 | -0.631
40 | Cc1ccc(NC(=O)c2ccc(CN3CCN(C)CC3)cc2)cc1Nc1nc(-c2cccnc2)cs1 [Masitinib (AB1010)] | -0.266 ± 0.035 | -4.1 ± 3.4 | -1.3 | -1.64 | -3.8 | -2.55
41 | CCN(CCCc1ccccc1)CCCc1ccccc1 [Alverine Citrate] | -0.335 ± 0.96 | 0.594 ± 0.88 | -1.86 | 2.13 | -0.916 | -0.899
42 | CN1CCN2c3ncccc3Cc3ccccc3C2C1 (stereo not given) [Mirtazapine (Remeron, Avanza)] | 0.0185 ± 0.56 | -0.308 ± 0.047 | 0.97 | 0.151 | 0.366 | -0.339
43 | CC(C)N(CCNC(=O)CN1CCCC1=O)C(C)C [Pramiracetam] | 0.0799 ± 0.65 | 0.0728 ± 0.54 | -0.782 | -0.0993 | 0.202 | -0.167
44 | Cn1ccnc1S [Methimazole (Tapazole, Northyx)] | -0.306 ± 1.3 | -0.337 ± 0.53 | -0.424 | 0.152 | -1.45 | -0.575
45 | CCC1=C(C)CN(C(=O)NCCc2ccc(S(=O)(=O)NC(=O)N[C@H]3CC[C@H](C)CC3)cc2)C1=O [Glimepiride] | 0.198 ± 0.45 | 0.451 ± 0.63 | 0.15 | 0.07 | -0.48 | 0.159

Source: the supplement of paper PMC8813932
